Measured values reported in patent US5760092A, “Allocolchinones and uses thereof” (Brandeis University, priority 1996, dated 1998).
“And” between values parts separate entries of the source, which are not always exact repeats. Equal entries are not always repeated. Where two headings read alike, the source gives them in different places.

What was measured:
CCRF-CEM leukemia cells = settings: log10 conc -8.0; 0.01 µM
[1] = tested on: NCI-H23 non-small cell lung cancer cells
[2] = tested on: SW-620 colon cancer cells
M14 melanoma cells = settings: log10 conc -5.0
SK-MEL-5 melanoma cells [3] = tested on: SK-MEL-5 melanoma cells
[4] = tested on: IGR-OV1 ovarian cancer cells
[5] = tested on: OVCAR-4 ovarian cancer cells
K-562 leukemia cells = assay: cells; settings: Homo sapiens
ACHN renal cancer cells = settings: log10 conc -8.0; 0.01 µM
[6] = tested on: PC-3 prostate cancer cells
[7] = tested on: MDA-MB-435 breast cancer cells
[8] = tested on: MDA-N breast cancer cells; settings: log10 conc -4.0; 100 µM
[9] = tested on: BT-549 breast cancer cells
RPMI-8226 leukemia cells = assay: cells; settings: Homo sapiens
[10] = tested on: EKVX non-small cell lung cancer cells; assay: cells; settings: Homo sapiens
[11] = tested on: HCC-2998 colon cancer cells; assay: cells; settings: Homo sapiens, HCC 2998, read-out: Percent Growth, log10 conc -8.0
[12] = tested on: HCT-116 colon cancer cells; assay: cells; settings: Homo sapiens
[13] = tested on: HCT-15 colon cancer cells; assay: cells; settings: Homo sapiens
[14] = tested on: SW-620 colon cancer cells; assay: cells; settings: Homo sapiens
MALME-3M melanoma cells = assay: cells; settings: Homo sapiens
SK-MEL-5 melanoma cells [15] = assay: cells; settings: Homo sapiens, SK-MEL-5, read-out: Percent Growth, log10 conc -5.0
UACC-257 melanoma cells = assay: cells; settings: Homo sapiens
[16] = tested on: OVCAR-5 ovarian cancer cells; assay: cells; settings: Homo sapiens
[17] = tested on: BT-549 breast cancer cells; assay: cells; settings: Homo sapiens
[18] = read-out: Percent Growth, log10 conc -5.0
[19] = read-out: Percent Growth, log10 conc -6.0
[20] = read-out: Percent Growth, log10 conc -7.0

## CCCC(=O)NC1CCc2cc(OC)c(OC)c(OC)c2-c2ccc(C(C)=O)cc21 (stereo not shown)
CCRF-CEM leukemia cells
  Percent Growth: 0% and 7%
SR leukemia cells; log10 conc -5.0, 10 µM
  Percent Growth: -9% and 0%
SR leukemia cells; log10 conc -6.0, 1 µM
  Percent Growth: -11%
SR leukemia cells; log10 conc -7.0, 0.1 µM
  Percent Growth: 3%
SR leukemia cells; log10 conc -8.0, 0.01 µM
  Percent Growth: -1% and 0%
[1]; log10 conc -4.0, 100 µM
  Percent Growth: -32%
[1]; log10 conc -5.0
  Percent Growth: 5%
[1]; log10 conc -6.0, 1 µM
  Percent Growth: 4%
[1]; log10 conc -7.0, 0.1 µM
  Percent Growth: 0% and 3%
[2]; log10 conc -4.0, 100 µM
  Percent Growth: 15%
[2]; log10 conc -7.0, 0.1 µM
  Percent Growth: 26%
[2]; log10 conc -8.0, 0.01 µM
  Percent Growth: 25%
M14 melanoma cells
  Percent Growth: 4%
SK-MEL-2 melanoma cells; log10 conc -4.0, 100 µM
  Percent Growth: 17%
SK-MEL-2 melanoma cells; log10 conc -6.0, 1 µM
  Percent Growth: 4% and -3%
SK-MEL-2 melanoma cells; log10 conc -7.0, 0.1 µM
  Percent Growth: -9% and -4%
SK-MEL-28 melanoma cells; log10 conc -4.0, 100 µM
  Percent Growth: 29% and 58%
SK-MEL-28 melanoma cells; log10 conc -5.0, 10 µM
  Percent Growth: 27% and 52%
SK-MEL-28 melanoma cells; log10 conc -6.0, 1 µM
  Percent Growth: 27% and 54%
SK-MEL-5 melanoma cells [3]; log10 conc -4.0, 100 µM
  Percent Growth: -47%
SK-MEL-5 melanoma cells [3]; log10 conc -5.0, 10 µM
  Percent Growth: 2%
SK-MEL-5 melanoma cells [3]; log10 conc -6.0, 1 µM
  Percent Growth: 4%
SK-MEL-5 melanoma cells [3]; log10 conc -7.0, 0.1 µM
  Percent Growth: -5% and 3%
SK-MEL-5 melanoma cells [3]; log10 conc -8.0
  Percent Growth: 2%
[4]; log10 conc -5.0, 10 µM
  Percent Growth: 20%
[4]; log10 conc -6.0, 1 µM
  Percent Growth: 18%
[4]; log10 conc -7.0, 0.1 µM
  Percent Growth: 20%
[5]; log10 conc -4.0, 100 µM
  Percent Growth: 13%
[5]; log10 conc -5.0, 10 µM
  Percent Growth: 42%
[5]; log10 conc -7.0, 0.1 µM
  Percent Growth: 51%
[5]; log10 conc -8.0, 0.01 µM
  Percent Growth: 58%
K-562 leukemia cells; K562, read-out: Percent Growth, log10 conc -4.0
  activity at 100 µM: 4%
K-562 leukemia cells; K562, read-out: Percent Growth, log10 conc -5.0
  activity at 10 µM: 7%
K-562 leukemia cells; K562, read-out: Percent Growth, log10 conc -6.0
  activity at 1 µM: 6%
K-562 leukemia cells; K562, read-out: Percent Growth, log10 conc -7.0
  activity at 0.1 µM: 4%
K-562 leukemia cells; K562, read-out: Percent Growth, log10 conc -8.0
  activity at 0.01 µM: 6%
ACHN renal cancer cells
  Percent Growth: 28%
TK-10 renal cancer cells; log10 conc -4.0, 100 µM
  Percent Growth: 26%
TK-10 renal cancer cells; log10 conc -5.0, 10 µM
  Percent Growth: 79%
TK-10 renal cancer cells; log10 conc -6.0, 1 µM
  Percent Growth: 81%
TK-10 renal cancer cells; log10 conc -7.0, 0.1 µM
  Percent Growth: 77%
TK-10 renal cancer cells; log10 conc -8.0
  Percent Growth: 78%
TK-10 renal cancer cells; log10 conc -8.0, 0.01 µM
  Percent Growth: 53%
[6]; log10 conc -6.0, 1 µM
  Percent Growth: 11%
[6]; log10 conc -7.0, 0.1 µM
  Percent Growth: 12%
[6]; log10 conc -8.0, 0.01 µM
  Percent Growth: 9%
[7]; log10 conc -5.0, 10 µM
  Percent Growth: -44% and -45%
[7]; log10 conc -6.0, 1 µM
  Percent Growth: -42% and -46%
[7]; log10 conc -7.0, 0.1 µM
  Percent Growth: -45% and -43%
[7]; log10 conc -8.0
  Percent Growth: -54%
[7]; log10 conc -8.0, 0.01 µM
  Percent Growth: -44%
[8]
  Percent Growth: -46%
[9]; log10 conc -5.0, 10 µM
  Percent Growth: 23%
[9]; log10 conc -6.0, 1 µM
  Percent Growth: 30%
[9]; log10 conc -8.0, 0.01 µM
  Percent Growth: 26%
RPMI-8226 leukemia cells; RPMI-8226, read-out: Percent Growth, log10 conc -5.0
  activity at 10 µM: 7%
RPMI-8226 leukemia cells; RPMI-8226, read-out: Percent Growth, log10 conc -6.0
  activity at 1 µM: 8%
RPMI-8226 leukemia cells; RPMI-8226, read-out: Percent Growth, log10 conc -7.0
  activity at 0.1 µM: 11%
RPMI-8226 leukemia cells; RPMI-8226, read-out: Percent Growth, log10 conc -8.0
  activity at 0.01 µM: 14%
[10]; read-out: Percent Growth, log10 conc -4.0
  activity at 100 µM: 27%
[10]; [18]
  activity at 10 µM: 28%
[10]; [19]
  activity at 1 µM: 32%
[10]; [20]
  activity at 0.1 µM: 21%
[10]; read-out: Percent Growth, log10 conc -8.0
  activity at 0.01 µM: 23%
[11]
  activity at 0.01 µM: 36%
[12]; HCT-116, read-out: Percent Growth, log10 conc -5.0
  activity at 10 µM: 6%
[12]; HCT-116, read-out: Percent Growth, log10 conc -6.0
  activity at 1 µM: 6%
[12]; HCT-116, read-out: Percent Growth, log10 conc -7.0
  activity at 0.1 µM: 7%
[12]; HCT-116, read-out: Percent Growth, log10 conc -8.0
  activity at 0.01 µM: 12%
[13]; HCT-15, read-out: Percent Growth, log10 conc -4.0
  activity at 100 µM: 8%
[13]; HCT-15, read-out: Percent Growth, log10 conc -5.0
  activity at 10 µM: -15%
[13]; HCT-15, read-out: Percent Growth, log10 conc -6.0
  activity at 1 µM: -12%
[13]; HCT-15, read-out: Percent Growth, log10 conc -7.0
  activity at 0.1 µM: -17%
[13]; HCT-15, read-out: Percent Growth, log10 conc -8.0
  activity at 0.01 µM: 6%
[14]; SW-620, read-out: Percent Growth, log10 conc -5.0
  activity at 10 µM: 28%
[14]; SW-620, read-out: Percent Growth, log10 conc -6.0
  activity at 1 µM: 23%
[14]; SW-620, read-out: Percent Growth, log10 conc -7.0
  activity at 0.1 µM: 24%
[14]; SW-620, read-out: Percent Growth, log10 conc -8.0
  activity at 0.01 µM: 21%
MALME-3M melanoma cells; [18]
  activity at 10 µM: 24%
MALME-3M melanoma cells; [19]
  activity at 1 µM: 16%
MALME-3M melanoma cells; [20]
  activity at 0.1 µM: 15%
SK-MEL-5 melanoma cells [15]
  activity at 10 µM: 1%
UACC-257 melanoma cells; UACC-257, read-out: Percent Growth, log10 conc -5.0
  activity at 10 µM: 34%
UACC-257 melanoma cells; UACC-257, read-out: Percent Growth, log10 conc -6.0
  activity at 1 µM: 41%
UACC-257 melanoma cells; UACC-257, read-out: Percent Growth, log10 conc -7.0
  activity at 0.1 µM: 36%
UACC-257 melanoma cells; UACC-257, read-out: Percent Growth, log10 conc -8.0
  activity at 0.01 µM: 49%
[16]; OVCAR-5, read-out: Percent Growth, log10 conc -4.0
  activity at 100 µM: 12%
[16]; OVCAR-5, read-out: Percent Growth, log10 conc -5.0
  activity at 10 µM: 20%
[16]; OVCAR-5, read-out: Percent Growth, log10 conc -6.0
  activity at 1 µM: 24%
[16]; OVCAR-5, read-out: Percent Growth, log10 conc -7.0
  activity at 0.1 µM: 24%
[16]; OVCAR-5, read-out: Percent Growth, log10 conc -8.0
  activity at 0.01 µM: 17%
[17]; BT-549, read-out: Percent Growth, log10 conc -5.0
  activity at 10 µM: 13%
[17]; BT-549, read-out: Percent Growth, log10 conc -6.0
  activity at 1 µM: 20%
[17]; BT-549, read-out: Percent Growth, log10 conc -8.0
  activity at 0.01 µM: 34%
